Assay results as given in article PMC12136788.
The other results are listed elsewhere or left out.

T1: UNK ZnF1-3 (human, UniProt Q9C0B0 31-174)
T1 sequence: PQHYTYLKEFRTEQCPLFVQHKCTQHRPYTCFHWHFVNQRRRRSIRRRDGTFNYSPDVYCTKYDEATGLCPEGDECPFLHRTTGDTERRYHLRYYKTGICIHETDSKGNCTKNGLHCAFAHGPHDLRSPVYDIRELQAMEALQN

B1: chr8:23117756:23117757:+_ENSG00000147457_ENST00000313219|hu_mus|FALSE|FALSE (ssRNA)
RNA: GGGAGUUCUACAGUCCGACGAUCUUCAAGUUCAGCAUCCAAGAUCCUAGGCUUAGGCACACUGUUGGUAUAAAGCGUUGUCUCCUGGGGGGUUUCGAGCAGGCUCAAAGGUUCUGUGGUGGUGUCCUGAAGGAGGAUGUCCAACAACAGAGGAUUGAGCAUCA
B2: chr8:117878989:117878990:-_ENSG00000164754_ENST00000297338|hu_hu|FALSE|FALSE (ssRNA)
RNA: GGGAGUUCUACAGUCCGACGAUCCCAGAGGCCCUCUUUUACUGAGAACAAAAUGUGCGUAGAACAUUGUUCUGGCUGGCUAUGAAAACAGAAGAAAACCUUGCUCUCCGCUGGGAGUUGGGCGGGCUGGGUGGCCCGGGGAGGCAACAGAGGAUUGAGCAUCA
B3: 125006364_125006606_7467_CDS_ENSMUSG00000014444_ENSMUST00000067252|mouse|control|control (ssRNA)
RNA: GGGAGUUCUACAGUCCGACGAUCCCCUGUGCCCACUUGCUCCCUCCGCAGCUGGAUGCGCACACCAAGGUAGUCCUCUUCCUCAUCUGGCUGCAGCUGCUUCACAGGGUUGGCUUCAGGCCCAUUGGGAGCACGAAUGUACUUCAACAGAGGAUUGAGCAUCA
B4: 12333574_12338705_554_CDS_ENSMUSG00000064127_ENSMUST00000096495|mouse|control|control (ssRNA)
RNA: GGGAGUUCUACAGUCCGACGAUCUGGCAAUAAGUCCGUCAACACCAUAAGCUCCGAGUAGGCCCGGUGGAGCAGAAAUUCGAUGAGCGUGCUAAGCCGGUAUCCAGGGCUAGCUGCCGCCGCAGCUGCCGCCGCCACAGCGGCCAACAGAGGAUUGAGCAUCA
B5: chr6:52679276:52679277:+_ENSMUSG00000004535_ENSMUST00000080723|mus_hu|FALSE|FALSE (ssRNA)
RNA: GGGAGUUCUACAGUCCGACGAUCGUAACAGAACUGAUAAAAUUCUCCAUCAUCAUUUGGAAGGUAAUAUCCUUGGAAUGCUAGUACACAAUUGACUGUUGAUCCUUCCACAUAAUGUUCAGGCAUAGGGGACCAUAAAAACGUCAACAGAGGAUUGAGCAUCA
B6: chr19:53710959:53710960:+_ENSMUSG00000024974_ENSMUST00000025930|mus_mus|FALSE|FALSE (ssRNA)
RNA: GGGAGUUCUACAGUCCGACGAUCACGGAUUUCAUCAUUCAGAGCGUCGACUCUUUUCUGAUCUUCCAGACUGAGUUGAGAAAGCAAAUCCGUUCCUAGCUCCGCUUUCAGUGACUCUCUGGUGGACUCCAUAGCAUGCAGACUCAACAGAGGAUUGAGCAUCA
B7: chr16:94915998:94915999:+_ENSMUSG00000022897_ENSMUST00000023614|mus_hu|FALSE|FALSE (ssRNA)
RNA: GGGAGUUCUACAGUCCGACGAUCUUUUGAUAUUGCUAUACUCAAGAUGAUAUCCUUUUAUUCACUGUAAACCUUUAUGAACUACCAAGUUCAAAAAAAUCAUCCACAGGCUUGACAGUUAAUUACAAAAUAAAUAUGGAUUUCCAACAGAGGAUUGAGCAUCA
B8: chr19:5716489:5716490:-_ENSMUSG00000024937_ENSMUST00000075606|mus_mus|FALSE|FALSE (ssRNA)
RNA: GGGAGUUCUACAGUCCGACGAUCUACCAUGUCCGCCGGCUCGAGCAGCCGAGACACACCCAGGGCAGCGAAGCCAUCAAAAGCCUGCUUGUUGUUCUGUUUGAUGUUGAGGGGAUCAAGGGAGAAAUAAUCGAUCUUGUCUGGCAACAGAGGAUUGAGCAUCA
B9: chr2:26769575:26769576:-_ENSMUSG00000015790_ENSMUST00000167661|mus_mus|motif|central (ssRNA)
RNA: GGGAGUUCUACAGUCCGACGAUCUGGGCUGUUCUCCGGAACAAAGGGCUUCCUGUUUUCUGUGAGCCUCACUAUGCCAACGGGGUCGGCUUCUCCCAGAACCUGGCCUUUCUGUCUGGUCUCAGGAUUCACUUUCUUCCUGGGCAACAGAGGAUUGAGCAUCA
B10: chr4:175160266:175160267:-_ENSG00000164117_ENST00000503293|hu_mus|FALSE|FALSE (ssRNA)
RNA: GGGAGUUCUACAGUCCGACGAUCAGGGGCAUGAAUAUGACGAAAAAAUUCUCUCAGUGCAUUCGGCAAGAACUGAUUUCUAAAAUUAUGCAAGGUUACAAGGUCAUCCAAGACAUCUCUCCUUUCAUCAAGAUAGAUUCUCAGCAACAGAGGAUUGAGCAUCA
B11: chr2:103616161:103616162:-_ENSMUSG00000027184_ENSMUST00000111147|mus_hu|FALSE|FALSE (ssRNA)
RNA: GGGAGUUCUACAGUCCGACGAUCCUCAUCUACCUGCUCCUUUUCACCACUGGUGAACUGUGUUUCUGCCAUGAACUGUCUAUUUACAUACUCUGUUGAUUCAACUUCACUUUGCUCAGUGUACUCUUCUGCUGGCUCAGGUUCCAACAGAGGAUUGAGCAUCA
B12: chr1:60041781:60041782:+_ENSMUSG00000041040_ENSMUST00000036540|mus_mus|FALSE|FALSE (ssRNA)
RNA: GGGAGUUCUACAGUCCGACGAUCUUAAGGAGUGAAUCUCAACUUUACAAAUUUAGUAAUGGCAAGUUUACUUUAGUUUCCUAAAAGAAAACCUCAGGAUCUCAGUUCAAUCCCAGACAGAGAAAGCUCUCCAUGGGGCCACUGCAACAGAGGAUUGAGCAUCA
B13: chr2:121050808:121050809:+_ENSG00000144118_ENST00000272519|hu_hu|FALSE|FALSE (ssRNA)
RNA: GGGAGUUCUACAGUCCGACGAUCAGCAGCUGGCUUCAUCCGUCACCUUGACACUCAUAGUAAGCAACAUCUUUCUUUAAAACUUUUCUUGUUCUUGCUGCUUUUCUUGCCAUUCUUGUCUUUGUUUUCUGACAUCUUCUUUGUCAACAGAGGAUUGAGCAUCA
B14: chr9:53370893:53370894:+_ENSMUSG00000033054_ENSMUST00000035850|mus_hu|motif|central (ssRNA)
RNA: GGGAGUUCUACAGUCCGACGAUCUGCUGAAUCAUUAGAUGGUUGUUUAGUAGAAGACAGCGAAUCUCCAAGAUGAAUUUCGGCUUGUCCAGAUACAUUUAAAUGUGAACUUUCAACAGACACAGGUAGUAUUUCACUUUGAAGCAACAGAGGAUUGAGCAUCA

Each binder was assayed against T1, UNK ZnF1-3 (assay: nsRBNS (natural sequence RNA bind-n-seq); RBNS binding buffer (assumed for nsRBNS): 25 mM Tris pH 7.5, 150 mM KCl, 3 mM MgCl2, 0.01% Triton X-100, 500 ug/ml BSA, 20 U/ml SUPERase-In, 4 C; UNK is unkempt and MSI1 is Musashi-1; names of the RNAs are library labels; protein concentration not given here; high values mean tight binding).
B1 showed a binding signal of 1.15 enrichment R. B2 was tested, and the binding signal was 1.4 enrichment R. With B3 the binding signal was 0.589 enrichment R. Binder B4 has a binding signal of 1.48 enrichment R. With B5 the binding signal was 0.87 enrichment R. In the case of B6, the binding signal is reported as 0.48 enrichment R. Work on B7 yielded a binding signal of 0.802 enrichment R. Work on B8 yielded a binding signal of 1.45 enrichment R. With B9 the binding signal was 0.553 enrichment R. In the case of B10, the binding signal is reported as 1.4 enrichment R. For B11, the binding signal was 0.428 enrichment R. Work on B12 yielded a binding signal of 0.716 enrichment R. With B13 the binding signal was 0.448 enrichment R. Work on B14 yielded a binding signal of 0.797 enrichment R.
